Experimental data: article PMC4336329 (PLoS ONE, 2015)
About 14,000 (4.5%) of roughly 310,000 compounds showed an effect of 50% or more. The effect is printed as a negative number. The list shows a part of the results.

These compounds were tested against human ether-à-go-go-related gene (hERG) potassium channel (human, UniProt Q12809) (assay: primary screen, population patch clamp on CHO cells stably expressing hERG).
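Further: peak tail current of the secondary pulse compared with the same well before compound.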

Sequence of human ether-à-go-go-related gene (hERG) potassium channel (Q12809 whole entry, looked up): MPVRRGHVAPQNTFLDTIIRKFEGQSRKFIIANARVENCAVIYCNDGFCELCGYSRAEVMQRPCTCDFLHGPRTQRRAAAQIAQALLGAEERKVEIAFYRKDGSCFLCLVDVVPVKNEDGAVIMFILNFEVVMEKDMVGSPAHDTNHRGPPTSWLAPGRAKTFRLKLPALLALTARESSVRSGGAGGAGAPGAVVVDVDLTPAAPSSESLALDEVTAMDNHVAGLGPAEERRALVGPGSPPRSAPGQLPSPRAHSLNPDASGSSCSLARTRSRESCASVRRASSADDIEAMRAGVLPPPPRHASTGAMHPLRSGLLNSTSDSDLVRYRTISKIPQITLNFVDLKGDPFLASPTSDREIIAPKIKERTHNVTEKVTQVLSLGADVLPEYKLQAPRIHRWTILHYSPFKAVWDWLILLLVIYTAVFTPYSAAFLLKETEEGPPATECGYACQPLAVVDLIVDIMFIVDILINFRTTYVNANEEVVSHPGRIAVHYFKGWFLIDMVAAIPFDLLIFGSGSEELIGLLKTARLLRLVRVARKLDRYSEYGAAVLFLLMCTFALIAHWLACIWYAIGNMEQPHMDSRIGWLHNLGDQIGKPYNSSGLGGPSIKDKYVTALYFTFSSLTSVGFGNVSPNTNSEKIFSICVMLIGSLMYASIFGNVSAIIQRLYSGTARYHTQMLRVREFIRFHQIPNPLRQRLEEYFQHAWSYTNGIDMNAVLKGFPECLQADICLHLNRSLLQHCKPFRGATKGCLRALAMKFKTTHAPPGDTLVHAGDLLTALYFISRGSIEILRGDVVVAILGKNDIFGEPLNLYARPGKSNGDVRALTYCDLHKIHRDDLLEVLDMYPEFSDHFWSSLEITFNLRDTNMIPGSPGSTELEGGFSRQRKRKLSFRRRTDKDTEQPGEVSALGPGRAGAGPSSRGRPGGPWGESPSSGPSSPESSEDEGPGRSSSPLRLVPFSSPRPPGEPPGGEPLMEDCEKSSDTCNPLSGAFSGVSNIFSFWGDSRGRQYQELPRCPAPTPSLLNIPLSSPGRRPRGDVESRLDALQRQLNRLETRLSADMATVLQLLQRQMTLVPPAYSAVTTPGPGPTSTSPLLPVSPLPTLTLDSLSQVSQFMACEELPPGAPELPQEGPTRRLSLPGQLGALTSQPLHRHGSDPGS

Row | Structure (SMILES) | hERG current change (%, negative = inhibition) at 10uM
1 | CCc1cc(Cn2nc(-c3ccccc3C)cc2C(=O)O)on1 | 4.38%
2 | Cc1ccccc1NC(=O)Cc1nc(COC(=O)COc2cccc(C)c2C)cs1 | 22.1%
3 | COc1cccc(CCN2C(=O)C(=O)N([C@@H](CNCc3ccccc3)Cc3ccccc3F)C[C@@H]2C(C)(C)C)c1 | -48.5%
4 | COc1ccc(NC(=S)NC(=O)/C=C/c2ccco2)cc1 | -4.31%
5 | Cc1ccc(N2C(=O)C(c3c(C)[nH]n(-c4ccccc4)c3=O)(C(F)(F)F)C3=C2CC(C)(C)CC3=O)cc1 (stereo not shown) | 23.8%
6 | COc1ccc(NC(=O)C(=O)NCCN2CCN(C(=O)c3cccs3)CC2)cc1 | -45.1%
7 | COc1nnc(-c2ccc(C)cc2)c2ccccc12 | 5.93%
8 | CCc1ccccc1NC(=O)CN1CCN(C(=O)CNC(=O)c2ccccc2F)CC1 | -13.5%
9 | Cc1ccc(CCNC(=O)C2CCCN(S(=O)(=O)c3cccs3)C2)cc1 (stereo not shown) | 2.45%
10 | Cc1c(C(c2ccc(Br)cc2)c2c(C)n(C)n(-c3ccccc3)c2=O)c(=O)n(-c2ccccc2)n1C | 13.9%
11 | O=C(NC1CCCC1)C(=O)N(c1ccccc1F)C(C(=O)NCC1CCCO1)c1cccs1 (stereo not shown) | 5.52%
12 | O=C(NCCCN1CCCCCC1)c1ccc2c(Cl)c3c(nc2c1)CCCC3 | -53%
13 | Cl.O=C(c1ccco1)N1CCN(Cc2nnnn2CC2CCCO2)CC1 (stereo not shown) | -3.16%
14 | COc1ccc(CNC(=O)c2[nH]c(C)c(C(C)=O)c2C)cc1 | 9.67%
15 | O=C(NNC(=O)c1ccc(F)cc1F)c1ccc(-n2cnnn2)cc1 | 13.6%
16 | CCOC(=O)N1CCN(C(=O)c2ccccc2Oc2ccccc2)CC1 | -11.1%
17 | COc1ccc(F)c(CN2CCC(n3nccc3NC(=O)C3CCOC3)CC2)c1 (stereo not shown) | 5.47%
18 | COc1cccc(N2CCN(C(=O)CCNS(=O)(=O)c3ccc4c(c3)c(=O)n(C)c(=O)n4C)CC2)c1 | 7.5%
19 | CN(CCCNC(=O)C1CCC(CNS(=O)(=O)c2ccccc2)CC1)Cc1ccccc1 (stereo not shown) | -34%
20 | CC(C)CCn1cnc2c([nH]c3cccc(Cl)c32)c1=O | 4.47%
21 | COc1ccc(C(=O)C2CCCN(C(=O)Cn3cncn3)C2)cc1OC (stereo not shown) | 21.6%
22 | CS(=O)(=O)c1cccc(C(=O)NCc2ccccc2)c1 | -0.394%

Row | Structure (SMILES) | hERG current change (%, negative = inhibition) at 10uM
23 | COc1ccc(S(=O)(=O)N2CCCCCC2)cc1 | 1.12%
24 | CCOc1ccc(C(=O)CCC(=O)N2CCN(S(=O)(=O)c3cccc(F)c3)CC2)cc1 | -30.7%
25 | CCn1c(C(C)NC(=O)c2cccs2)nc2ccccc21 (stereo not shown) | -0.975%
26 | C=CCNC(=O)c1ccc2nccnc2c1 | 1.49%
27 | CSc1nc(C)c2c(n1)N(c1ccc(O)cc1)CC2 | 4.88%
28 | CC(C)[C@H](NC(=O)N1CCn2c1nc1ccccc12)C(=O)NCc1ccco1 | 11.1%
29 | CN(C)c1nc(N)c(C(=O)N=C(N)N)nc1Cl.Cl | -20.1%
30 | Cc1cccc(-n2nc3c(c2NC(=O)c2ccc(Br)o2)CSC3)c1 | -3.59%
31 | Cc1c(S(=O)(=O)N2CCCCC2)c(=O)n(C)c(=O)n1C | -0.159%
32 | CCOc1cc(/C=N/NC(N)=O)cc(Br)c1OCc1ccccc1 | 3.4%
33 | O=C(NCCN1CCOCC1)C(=O)NCC1OCCN1C(=O)c1ccc(Cl)cc1 (stereo not shown) | 4.46%
34 | COc1ccc(O)c(C2(O)C(=O)c3ccccc3C2=O)c1 | 16.1%
35 | CN1CCN(C(=O)CCn2c(=O)c3cccn3c3cccnc32)CC1 | 8.62%
36 | Cc1cccc(Sc2nc(-c3ccccc3)ccc2C#N)c1 | 3.42%
37 | Clc1ccc(-c2ccc(/C=N/Nc3nncc(-c4ccccc4)n3)o2)cc1 | 20.8%
38 | CCOc1cc(/C=N/Nc2nc(C)cc(=O)[nH]2)ccc1O | 31.7%
39 | O=C(N/N=C\c1cc2c(cc1[N+](=O)[O-])OCO2)c1cccs1 | -2.16%
40 | COc1ccc(CC(=O)O/N=C(\N)Cc2ccc(OC)c(OC)c2)cc1 | 4.5%
41 | Cc1sc2nc(CN3CCCC3)nc(N3CCN(S(=O)(=O)c4ccccc4)CC3)c2c1C | -67%
42 | CC(=O)c1ccc(NC(=O)c2cn(-c3ccccc3)nc2-c2ccncc2)cc1 | -15.7%
43 | CC(N=Cc1c(O)n(C2CC2)c(=S)[nH]c1=O)c1ccccc1 (stereo not shown) | 5.29%
44 | Cc1nc2c(o1)CCc1ccccc1C2N1CCN(C)CC1.O=C([O-])/C=C\C(=O)[O-] (stereo not shown) | 12.4%

Row | Structure (SMILES) | hERG current change (%, negative = inhibition) at 10uM
45 | CCN(CC)S(=O)(=O)c1ccc2nc(NC(=O)c3cccs3)sc2c1 | 2.85%
46 | Cc1ccc(NP(=O)(Oc2ccccc2F)Oc2ccccc2F)cc1C | 7.46%
47 | COc1cccc(CNc2ccc3[nH]c(=O)[nH]c3c2)c1OCc1ccccc1 | 5.57%
48 | CC(=O)c1c(C)[nH]c(C)c1C(C)=O | 4.16%
49 | Nc1nc(-c2c[nH]c3ccccc23)cs1 | 17.5%
50 | CCS(=O)(=O)N1CCCC(C(=O)NC2CCCC2)C1 (stereo not shown) | -2.59%
51 | CCNC(=S)Nc1ccc(OCc2nc3ccccc3s2)cc1 | 11.5%
52 | O=S(=O)(Nc1ccc2cn[nH]c2c1)c1ccccc1 | 3.23%
53 | COc1ccc(N=C2SC(CC(=O)Nc3ccccc3)C(=O)N2Cc2ccccn2)cc1 (stereo not shown) | 5.59%
54 | CCC(=O)Nc1cc(-c2cc3ccccc3oc2=O)ccc1OC | -29.6%
55 | COc1ccc(OC)c(N/C=C2/CCCCC2=O)c1 | -11.1%
56 | CC(=O)NN1C(=O)/C(=C\c2ccc(O)cc2)SC1=S | -0.495%
57 | O=C(NC1(C(F)(F)F)N=C(c2ccccc2)NC1=O)c1ccccc1F (stereo not shown) | 11.5%
58 | CCOC(=O)N1CCN(CC(=O)Nc2c(C(=O)OC)[nH]c3cc(C)ccc23)CC1 | -32.5%
59 | CCOC(=O)Cc1cc(=O)c2cc(C)ccc2[nH]1 | 16.7%
60 | Cc1ccc(NC(=O)/C(=C/c2ccco2)c2ccccc2)c(C)c1 | 8.65%
61 | O=C(CN1CCN(c2ccccc2F)CC1)Nc1cccnc1Cl | 11.1%
62 | O=C(NCCN1CCCCC1)Nc1ccccc1F | 7.87%
63 | COCCNC(=O)C1CC(c2ccccc2C(F)(F)F)=NO1 (stereo not shown) | 12.7%
64 | COc1cc(NC(=O)CN2CCN(Cc3ccc4c(c3)OCO4)CC2)cc(OC)c1.O=C(O)C(=O)O | -47%
65 | CCCCn1c(N)c(N(Cc2ccccc2OC)C(=O)COc2cc(C)ccc2Cl)c(=O)[nH]c1=O | 10.1%
66 | COc1ccnc(CS(=O)c2nc3cc(C(O)(F)F)ccc3[n-]2)c1OC.[Na+] (stereo not shown) | -30.1%

Row | Structure (SMILES) | hERG current change (%, negative = inhibition) at 10uM
67 | CCN(CC)/C(Sc1ccccc1)=C(/C(Cl)=C(Cl)Cl)[N+](=O)[O-] | -3.92%
68 | Cn1sc(NC(=O)c2cccc(Cl)c2)nc1=O | 2.35%
69 | CS(=O)(=O)N1N=C(c2ccco2)CC1c1ccccc1Cl (stereo not shown) | 5.49%
70 | O=C(Nc1ncc(Cc2cccc([N+](=O)[O-])c2)s1)c1ccco1 | -6.91%
71 | COc1cc(CN2CCN(CCCc3ccccc3)C(CCO)C2)cc(OC)c1O (stereo not shown) | -61.5%
72 | Cc1ccc2cccc(OCC(=O)Nc3cccc(S(=O)(=O)N4CCCC4)c3)c2n1 | 4.92%
73 | CCC(C)N1C(=O)/C(=C\c2cnc(N(C)C)nc2)C(=O)NC1=S (stereo not shown) | 17.4%
74 | CCNc1ccc(S(=O)(=O)N(C)C)cc1NCC(=O)Nc1ccccc1Cl | -5.8%
75 | CCOc1nc(NCc2ccco2)nc(Nc2ccc(OC)cc2)n1 | 2.06%
76 | Cc1cc(NS(=O)(=O)c2ccc(NC(=O)C(F)(F)F)cc2)nc(C)n1 | 21.3%
77 | Cc1ccc[n+](CC(=O)c2ccccc2)c1.[Br-] | 13.7%
78 | COc1ccc(S(=O)(=O)N2CCCCC2)cc1NC(=O)CSc1ncnc2ccccc12 | -51.2%
79 | COc1ccc(N=Cc2c(O)cc(C)oc2=O)cc1 | 11.7%
80 | O=[N+]([O-])c1ccccc1Oc1ccc(C(F)(F)F)cn1 | -7.4%
81 | Nc1ccc(C(=O)N2N=C(c3ccc(F)cc3)CC2(O)C(F)(F)F)cc1 (stereo not shown) | -2.02%
82 | COC(=O)c1ccc(COc2ccc(/C=N/N3CCN(C)CC3)cc2)cc1 | 14.2%
83 | O=C(Oc1ccc(OC(=O)c2ccncc2)cc1)c1ccncc1 | -1.78%
84 | COC(=O)c1cc(CNC(=O)Cc2ccsc2)ccc1OC | 7.23%
85 | O=C(NNS(=O)(=O)c1ccccc1)c1cccs1 | 3.77%
86 | C=CCn1c(=O)c(C(=O)NCCc2ccccc2)c(O)c2ccccc21 | 2.07%
87 | CCn1cc(CCC(=O)NCc2cccc(OC)c2OC)c2ccccc21 | 8.51%
88 | CCOc1ccc(S(=O)(=O)NCCC(=O)N2CC=C(c3ccccc3)CC2)cc1 | -30.1%
